# Source: PubChem BioAssay AID504706 (National Center for Advancing Translational Sciences (NCATS), 2011)
# In all, about 320,000 compounds went through this assay and about 200 (0.062%) were called active. This list was built around the results that the source calls inconclusive (neither active nor inactive); the mix of calls is not that of the screen. Calls follow the shape of the dose curve; as a rule, active = well fitted activation curve with a large enough effect; inconclusive = small, poorly fitted or top-dose-only effect; inactive = no such curve, though single readings can be large or run the other way. Potencies of inconclusive entries are left out as doubtful fits.
# Test: qHTS assay for re-activators of p53 using a Luc reporter; also: nearly all actives have a fitted effect of over 45% in size
# Details: H1299 p53-A138V BP100-luciferase reporter, luminescence, 24 h; series mostly up to 92.2 µM
# Summary of the method: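 H1299 (p53-null), stable ts p53-A138V + BP100-Luc; 1000 cells/well, Opti-MEM/10% FBS; cpd 4 pt, 1:5; 24 h, 37 deg C, 5% CO2; detection reagent 10 min RT; luminescence.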
# Potency is read from the fitted curve at half-maximal effect; tags tell the direction and shape of the fitted curve.
row,SMILES,Potency
1,Cc1nn(Cc2ccccc2)c(Cl)c1C(=O)NCc1ccc(C)n1C,"inconclusive [activator, partial curve, poor fit]"
2,Clc1ccc(-n2ncc3c(NCc4cccnc4)ncnc32)cc1Cl,"inconclusive [activator, partial curve, poor fit]"
3,CC1CC(=O)Nc2ccccc2N1C(=O)CSc1nnnn1C (stereo unspecified),inactive
4,COc1ccc(NC(=O)CSC2CCCCC2)cc1,"inconclusive [activator, partial curve, poor fit]"
5,O=C(N/N=C/c1ccc[nH]1)c1ccc(Cl)cc1,"inconclusive [activator, full curve]"
6,COC(=O)c1[nH]c2c(c1C)C(=O)CCC2,inactive
7,Nc1nc2ccccc2n1/N=C/c1ccc(Br)cc1,"inconclusive [activator, partial curve, poor fit]"
8,O=C1N=C(N2CCCCC2)S/C1=C\c1ccc(Cl)cc1,"inconclusive [activator, partial curve, poor fit]"
9,O=C(O)CCC(=O)Nc1ccc2c(c1)oc1ccccc12,inactive
10,CCOP(=O)(OCC)C(NC(=O)Nc1cccc(Cl)c1)C(N)=O (stereo unspecified),inactive
11,Cc1cc(C)nc(Sc2nc(Nc3ccccc3)nc(Sc3nc(C)cc(C)n3)n2)n1,"inconclusive [activator, single point]"
12,Cc1cccc(NCc2ccccc2O)c1C,"inconclusive [activator, partial curve, poor fit]"
13,COc1ccc(-c2c3c(=O)n(C)c(=O)n(C)c3cn2-c2ccc(O)cc2)cc1,inactive
14,CCOc1ccc(NC(=S)Nc2cc(-c3ccccc3)[nH]n2)cc1,inactive
15,C/C(=N/NC(=O)c1ccoc1C)C12CC3CC(CC(C3)C1)C2,"inconclusive [activator, partial curve, poor fit]"
16,C=CCN1C=CC(=C/C=C(/C#N)C(=O)OCC)C=C1,"inconclusive [activator, full curve, poor fit]"
17,CC(Oc1ccc(Cl)cc1Cl)C(=O)Nc1cccnc1 (stereo unspecified),inactive
18,Cc1cc(C)c(S(=O)(=O)c2ccccc2)c(OC(=O)c2c(Cl)cccc2Cl)n1,"inconclusive [activator, single point]"
19,NS(=O)(=O)c1cccc(NC(=S)NC(=O)C23CC4CC(CC(C4)C2)C3)c1,"inconclusive [activator, partial curve, poor fit]"
20,COc1ccc2[nH]c(C)c(CCNC(=S)Nc3ccc(C)cc3)c2c1,inactive
21,COc1ccccc1NC(=O)c1ccc2c(O)c(S(=O)(=O)c3ccccc3)c(=O)[nH]c2c1,inactive
22,CNc1nc(Cl)c(SC)c(NCc2ccc(F)cc2)n1,inactive
23,CC1=NN(Cc2ccccc2)C(=O)/C1=C\c1ccc(N(C)C)cc1,"inconclusive [activator, single point]"

row,SMILES,Potency
1,O=c1[nH]c(=S)[nH]c(O)c1N=Nc1ccc(-c2ccccc2)cc1[N+](=O)[O-],inactive
2,CSC(=NC#N)N1CCN(c2ccc(Cl)cc2)CC1,"inconclusive [activator, partial curve, poor fit]"
3,Cc1cc(C)nc(NC(=O)c2cc3ccccc3o2)n1,"inconclusive [activator, single point]"
4,COc1ccc(-n2c(SCC(=O)Nc3ccccc3OC)nc(O)cc2=O)cc1,inactive
5,Cc1ccc(NC(=O)c2ccc(OC(=O)c3cc4ccccc4o3)cc2)cc1,"inconclusive [activator, partial curve, poor fit]"
6,Cc1cc(N2CCOCC2)nc2ccc(NC(=O)C3CCC(C)CC3)cc12 (stereo unspecified),inactive
7,N#CC1=C(N)Oc2cc(O)c(C=Nc3ccccc3)cc2C1c1ccccc1 (stereo unspecified),"inconclusive [activator, partial curve, poor fit]"
8,COc1cc2c(cc1NC(=O)COC(=O)Cn1cnc3ccccc31)oc1ccccc12,"inconclusive [activator, single point]"
9,O=C(CN(c1ccccc1Cl)S(=O)(=O)c1ccccc1)N/N=C/c1ccccc1C(=O)O,inactive
10,N/C(=N\OC(=O)c1ccco1)c1ccc(Br)cc1,"inconclusive [activator, partial curve, poor fit]"
11,Cc1ccccc1C(=O)NNC(=O)Nc1ccccc1,inactive
12,Cn1c(=N)n(CC(=O)c2ccc(F)cc2)c2ccccc21,inactive
13,O=C(Nc1cccs1)Nc1ccc(F)cc1F,"inconclusive [activator, full curve]"
14,Cc1ccc(Cl)cc1N1CCN(C(=O)Cc2cn(C)c3ccccc23)CC1,inactive
15,CCS(=O)(=O)c1ccc2oc(Nc3ccccc3Cl)nc2c1,"inconclusive [activator, full curve, poor fit]"
16,Cn1ccc(NC(=O)c2ccc(Cl)cc2Cl)n1,"inconclusive [activator, partial curve, poor fit]"
17,O=C(Nc1nccs1)c1ccc(Br)s1,"inconclusive [activator, partial curve, poor fit]"
18,COc1ccccc1Nc1nc(N)nc(CSC(=S)N2CCC(C)CC2)n1,"inconclusive [activator, single point]"
19,Cc1ccccc1NC(=O)c1nnn(-c2ccc3c(c2)OCCO3)c1N,"inconclusive [activator, partial curve, poor fit]"
20,CCc1c(C)nc(SCC(=O)NNC(=O)c2ccco2)[nH]c1=O,"inconclusive [activator, single point]"
21,CCC(C)Oc1cc(-c2ccnc(Nc3cccc(Cl)c3)n2)ccn1 (stereo unspecified),"inconclusive [activator, single point]"
22,CCc1ccc(OCCNC(=O)c2cc(SC)ccc2Cl)cc1,inactive
23,Cc1ccc(-n2c(=O)[nH]cc(C(=O)Nc3ccc4c(c3)OCCO4)c2=O)cc1C,"inconclusive [activator, single point]"
